Measured values published in the supplement of paper PMC7125110.
± gives the standard error. This sample is rich in variants without activity.

B1: glmS ribozyme (parent)
chain: AUAAAAGCGCCAGAACUACAGAAAUGUAGUUGACGAGGAGGAGGUUUAUCGAAUUUUCGGCGGAUGCCUCCAAA

Key:
Details in all cases: with glucosamine-6-phosphate
[1] = variants of: B1; experiment: self-cleavage kobs at 40 uM GlcN6P; higher = faster cleavage; RNA array
Summary of the method: (§1)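 Sequenced MiSeq chips were the platform: E. coli RNA polymerase transcribed barcoded ribozyme variants on them in situ, and a hybridised Cy3 probe tracked these at 37 °C. After glucosamine-6-phosphate (40 μM to 10 mM) in HEPES/KCl/Mg(OAc)2 buffer was flowed in, tiles were imaged over ~14 h. Signals normalised to baseline and to non-cleaving reference variants were reduced to per-tile medians and fit to one- or two-exponential decays to obtain kobs. kcat and KM were derived through weighted Michaelis–Menten fits across concentrations.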

[2] = variants of: B1; experiment: self-cleavage kobs at 10000 uM GlcN6P; higher = faster cleavage; RNA array
Summary of the method: as §1

[3] = variants of: B1; experiment: self-cleavage kobs at 640 uM GlcN6P; higher = faster cleavage; RNA array
Summary of the method: as §1

[4] = variants of: B1; experiment: self-cleavage kobs at 2500 uM GlcN6P; higher = faster cleavage; RNA array
Summary of the method: as §1

[5] = variants of: B1; experiment: self-cleavage kobs at 160 uM GlcN6P; higher = faster cleavage; RNA array
Summary of the method: as §1

Variant	self-cleavage kobs at 40 uM GlcN6P [1] [s⁻¹]	self-cleavage kobs at 10000 uM GlcN6P [2] [s⁻¹]	self-cleavage kobs at 640 uM GlcN6P [3] [s⁻¹]	self-cleavage kobs at 2500 uM GlcN6P [4] [s⁻¹]	self-cleavage kobs at 160 uM GlcN6P [5] [s⁻¹]
G13A A33G G43C C50U	< 1e-05	< 1e-05	–	–	–
A12U U47A	0.00189 ± 0.00018	–	–	–	–
A12G G35C A36C	< 1e-05	–	–	–	–
G13C A48U C70U	< 1e-05	< 1e-05	< 1e-05	–	–
G13C A48U C70G	< 1e-05	–	–	–	–
G13A U56A G60C G62A C67G C71U	< 1e-05	–	–	–	–
A12G A14G G43C	< 1e-05	–	–	< 1e-05	–
C11G G32C	< 1e-05	< 1e-05	< 1e-05	< 1e-05	–
A12G G38U A39U	< 1e-05	–	< 1e-05	–	–
A12C U30C C34G A42G	< 1e-05	–	–	–	–
A12U A33U G41U G60A	< 1e-05	< 1e-05	–	–	–
C11U G37U G43U G63U	< 1e-05	–	–	–	–
A12C G29C	6.03e-05 ± 6.2e-06	0.00271 ± 0.00022	0.000508 ± 5.3e-05	0.00139 ± 0.00023	0.000193 ± 2.7e-05
C11G C68U C70G	< 1e-05	–	–	–	–
A12U G13U G35A G62A C71G	< 1e-05	< 1e-05	–	–	–
C11G U30G G40U A42U U57C	< 1e-05	< 1e-05	–	–	–
C11G G38U G63A	< 1e-05	–	–	< 1e-05	–
C11G G43C U57C G60A C68A	< 1e-05	< 1e-05	–	–	–
A12C U30C C71U	3.06e-05 ± 1.5e-05	–	–	–	–
G13A C16U C67U	< 1e-05	0.00025 ± 4.5e-05	–	0.000111 ± 2.7e-05	–
C11U G13A G38A G66C	< 1e-05	–	–	–	–
C11U U31C G38U G41U	< 1e-05	< 1e-05	–	–	–

Variant	self-cleavage kobs at 40 uM GlcN6P [1] [s⁻¹]	self-cleavage kobs at 10000 uM GlcN6P [2] [s⁻¹]	self-cleavage kobs at 640 uM GlcN6P [3] [s⁻¹]	self-cleavage kobs at 2500 uM GlcN6P [4] [s⁻¹]	self-cleavage kobs at 160 uM GlcN6P [5] [s⁻¹]
C11U A42U C58G	< 1e-05	–	–	–	–
A12C U54C	0.00107 ± 0.00014	0.0203 ± 0.0043	0.0063 ± 0.0021	0.0137 ± 0.0032	0.00117 ± 0.00027
A12G G51U	< 1e-05	< 1e-05	< 1e-05	–	–
C11U A48U U54A	< 1e-05	–	< 1e-05	–	< 1e-05
G13A A14G A36U G44A A48U U65A	< 1e-05	< 1e-05	–	< 1e-05	–
C11U G43C	< 1e-05	–	< 1e-05	< 1e-05	< 1e-05
C11U G43U	< 1e-05	< 1e-05	< 1e-05	< 1e-05	< 1e-05
C11G G29A G37U U57C C58U G60C	< 1e-05	–	–	–	–
C11G G44A A64C	< 1e-05	< 1e-05	–	–	–
A12G G13A	< 1e-05	–	–	–	–
C11G G35C G37C	< 1e-05	–	–	–	< 1e-05
C11G G35U A36G G38C U55G	< 1e-05	–	< 1e-05	< 1e-05	< 1e-05
A12U G41A C68U	< 1e-05	–	–	–	–
C11G G13U	< 1e-05	< 1e-05	< 1e-05	< 1e-05	< 1e-05
A12C C61G	< 1e-05	< 1e-05	< 1e-05	–	< 1e-05
A12U C61U	< 1e-05	–	–	–	< 1e-05
A12G G32C	< 1e-05	–	–	–	< 1e-05
A12U G66C	6.36e-05 ± 1.1e-05	0.00177 ± 0.00022	0.00058 ± 0.00016	0.00145 ± 0.00028	–
A12U G37U	< 1e-05	–	< 1e-05	–	–
G13C G38C	< 1e-05	< 1e-05	–	< 1e-05	–
A12G G35C G60A U65G C68G	0.000127 ± 3.9e-05	0.000121 ± 4.1e-05	–	0.000384 ± 0.00015	–
A12U U30A G59C	< 1e-05	–	–	–	–

Variant	self-cleavage kobs at 40 uM GlcN6P [1] [s⁻¹]	self-cleavage kobs at 10000 uM GlcN6P [2] [s⁻¹]	self-cleavage kobs at 640 uM GlcN6P [3] [s⁻¹]	self-cleavage kobs at 2500 uM GlcN6P [4] [s⁻¹]	self-cleavage kobs at 160 uM GlcN6P [5] [s⁻¹]
G13A	1.56e-05 ± 1.7e-06	0.000945 ± 3.6e-05	0.000162 ± 3.8e-06	0.00057 ± 3.3e-05	4.65e-05 ± 1.7e-06
A12C A39G C50U A53G	< 1e-05	–	–	–	–
G13A U30C A42U	< 1e-05	< 1e-05	–	–	–
A12C A48U	< 1e-05	–	–	–	–
A12C A48C	< 1e-05	–	–	–	–
C11U A15G A36C G62C U65C U69G	< 1e-05	–	–	< 1e-05	–
C11G G37U	< 1e-05	< 1e-05	–	< 1e-05	–
G13C A14C A39U G62C	< 1e-05	< 1e-05	–	–	< 1e-05
A12G C34U A36U	< 1e-05	< 1e-05	< 1e-05	–	< 1e-05
C11U A14C U30C G41U A64U	< 1e-05	< 1e-05	–	–	–
C11G G13U G41U	< 1e-05	< 1e-05	–	–	–
G13A G35U	< 1e-05	< 1e-05	< 1e-05	–	< 1e-05
C11G G38U	< 1e-05	< 1e-05	< 1e-05	–	< 1e-05
G13A G44A	< 1e-05	–	–	–	–
A12U A33C G37C	< 1e-05	–	–	–	–
A12C U30C U45A G59A G60C	< 1e-05	< 1e-05	–	–	–
A12C U47C	5.87e-05 ± 6.2e-06	–	0.000953 ± 0.00013	0.00187 ± 0.00022	0.000185 ± 3.6e-05
C11G U49G C68A	< 1e-05	< 1e-05	–	–	–
G13C A42U	< 1e-05	–	–	< 1e-05	< 1e-05
C11G G29A	< 1e-05	–	–	–	–
A12G A15G C70A	< 1e-05	8.6e-05 ± 3.1e-05	–	5.85e-05 ± 1.1e-05	–
G13C G35C G60U	< 1e-05	< 1e-05	–	–	–

Variant	self-cleavage kobs at 40 uM GlcN6P [1] [s⁻¹]	self-cleavage kobs at 10000 uM GlcN6P [2] [s⁻¹]	self-cleavage kobs at 640 uM GlcN6P [3] [s⁻¹]	self-cleavage kobs at 2500 uM GlcN6P [4] [s⁻¹]	self-cleavage kobs at 160 uM GlcN6P [5] [s⁻¹]
G13A G37C	< 1e-05	< 1e-05	< 1e-05	< 1e-05	< 1e-05
G13C C34G G38U G51A	< 1e-05	–	–	–	–
A12U A36G C58U A64G C68U C70U	< 1e-05	< 1e-05	–	–	–
C11G G51C	< 1e-05	–	< 1e-05	< 1e-05	< 1e-05
C11U U49C G51U	< 1e-05	–	–	–	–
G13C G40U A53U G59U	< 1e-05	< 1e-05	–	–	–
C11U G29C C34A G37U	< 1e-05	–	–	–	–
C11G G40A G43A	< 1e-05	< 1e-05	–	–	–
G13C G29U G32A	7.61e-05 ± 2.4e-05	0.00214 ± 0.00069	–	–	–
C11G G13C U45G U47A	< 1e-05	–	–	< 1e-05	–
C11U G35U G37C U57C	< 1e-05	–	–	–	–
A12U U45G	0.000515 ± 6.4e-05	0.0165 ± 0.0026	0.00546 ± 0.0011	0.0134 ± 0.0027	0.00127 ± 0.00021
A12G G38C A39G G41U U46G U47A	< 1e-05	< 1e-05	–	< 1e-05	–
A12G U30A G38A	< 1e-05	< 1e-05	–	–	–
A12U A52C C58U C71U	< 1e-05	–	–	–	–
G13A C68U C71A	< 1e-05	< 1e-05	–	–	–
A12G A33U	< 1e-05	< 1e-05	–	–	–
C11G G62U	< 1e-05	< 1e-05	< 1e-05	< 1e-05	–
G13A G32A G35A G40A C71U	< 1e-05	< 1e-05	< 1e-05	< 1e-05	–
C11U A14G A52C G60U	< 1e-05	–	< 1e-05	< 1e-05	< 1e-05
A12C G41A	7.57e-05 ± 9.1e-06	–	–	–	–
A12C G41U	5.28e-05 ± 7e-06	0.00129 ± 0.00013	0.00028 ± 6.1e-05	0.00034 ± 6.3e-05	7.73e-05 ± 8.9e-06

Variant	self-cleavage kobs at 40 uM GlcN6P [1] [s⁻¹]	self-cleavage kobs at 10000 uM GlcN6P [2] [s⁻¹]	self-cleavage kobs at 640 uM GlcN6P [3] [s⁻¹]	self-cleavage kobs at 2500 uM GlcN6P [4] [s⁻¹]	self-cleavage kobs at 160 uM GlcN6P [5] [s⁻¹]
G13C A39U G59U	< 1e-05	–	–	–	–
G13A A36U G51U	< 1e-05	< 1e-05	< 1e-05	< 1e-05	–
A12G A52G	< 1e-05	–	–	–	–
C11G G38C G41A G44C U47G G66U C70U	< 1e-05	–	–	–	–
A12G G13C A33C G44C U49G	< 1e-05	< 1e-05	–	–	–
C11U G37C U65G	< 1e-05	–	–	–	–
A12C A42G C70A	< 1e-05	2.91e-05 ± 1.2e-05	–	–	–
A12G A15C G35U C71U	< 1e-05	–	–	–	–
C11U A15C G51U C70A	6.91e-05 ± 1.9e-05	5.08e-05 ± 2e-05	–	0.000111 ± 3.3e-05	–
A12U G41C G43U	< 1e-05	–	–	–	–
A12C G40A	0.000112 ± 2.1e-05	0.00569 ± 0.0013	0.000633 ± 0.00023	0.00149 ± 0.00055	0.000305 ± 8e-05
G13A G63A	< 1e-05	–	–	–	–
A12G U31A G35U G40U G44A	< 1e-05	< 1e-05	–	–	–
C11U A33U G43U A53C U54A	< 1e-05	< 1e-05	–	–	–
C11U A53C U56C C61U C70A	< 1e-05	< 1e-05	–	–	–
A12U U45A A53U	0.00437 ± 0.0009	–	–	–	–
C11G G40U A53G G62C C71G	< 1e-05	–	–	–	–
A12U U31A	0.000416 ± 7.3e-05	–	0.00457 ± 0.0011	–	0.00177 ± 0.00045
